Measurements published in EPA's CvTdb concentration-time database.
Where “and” joins values, the source holds several entries; their conditions need not be identical. Identical values can stand only once. Further values from the same series stand in other lists.

How the values were obtained:
[1] = test system: Rat; assay: concentration in brain after dosing; settings: 3 h; dosed: alpha/beta-Thujone mixture; 25 mg/kg; oral; Male; F344
[2] = test system: Rat; assay: concentration in brain after dosing; settings: 5 min; dosed: 76231-76-0; 3.0 mg/kg; iv; Female; F344
[3] = test system: Rat; assay: concentration in plasma after dosing; settings: 5 min; dosed: alpha/beta-Thujone mixture; 25 mg/kg; oral; Female; F344
[4] = test system: Rat; assay: concentration in plasma after dosing; settings: 0.5 h; dosed: alpha/beta-Thujone mixture; 25 mg/kg; oral; Male; F344
[5] = test system: Rat; assay: concentration in plasma after dosing; settings: 0.5 h; dosed: alpha/beta-Thujone mixture; 50 mg/kg; oral; Female; F344
[6] = test system: Rat; assay: concentration in plasma after dosing; settings: 10 min; dosed: 76231-76-0; 3.0 mg/kg; iv; Female; F344
[7] = test system: Rat; assay: concentration in plasma after dosing; settings: 10 min; dosed: alpha/beta-Thujone mixture; 25 mg/kg; oral; Male; F344
[8] = test system: Rat; assay: concentration in liver after dosing; settings: 120 h; dosed: 3,3',4,4',5-pentachlorobiphenyl; 1000 mg/kg; oral; Female; Harlan Sprague Dawley
[9] = test system: Rat; assay: concentration in liver after dosing; settings: 2880 h; dosed: 3,3',4,4',5-pentachlorobiphenyl; 1000 mg/kg; oral; Female; Harlan Sprague Dawley
[10] = test system: Rat; assay: concentration in liver after dosing; settings: 1464 h; dosed: 3,3',4,4',5-pentachlorobiphenyl; 1000 mg/kg; oral; Female; Harlan Sprague Dawley
[11] = test system: Rat; assay: concentration in liver after dosing; settings: 8760 h; dosed: 3,3',4,4',5-pentachlorobiphenyl; 1000 mg/kg; oral; Male; Harlan Sprague Dawley
[12] = test system: Rat; assay: concentration in liver after dosing; settings: 24 h; dosed: 3,3',4,4',5-pentachlorobiphenyl; 1000 mg/kg; oral; Female; F344
[13] = test system: Rat; assay: concentration in plasma after dosing; settings: 8184 h; dosed: 3,3',4,4',5-pentachlorobiphenyl; 1000 mg/kg; oral; Male; Harlan Sprague Dawley
[14] = test system: rat; assay: concentration in blood after dosing; settings: dosed: tert-amyl methyl ether, inhalation, duration: 6 hr, F344 (Charles River)

CC(C)[C@]12CC(=O)[C@H](C)[C@H]1C2 [alpha-Thujone]
Settings	concentration in brain [ng/g]	concentration in plasma [ng/mL]
[1]	191	–
[2]	3280	–
[3]	–	350
[4]	–	206
[5]	–	479
[6]	–	303
[7]	–	121

Clc1ccc(-c2cc(Cl)c(Cl)c(Cl)c2)cc1Cl [3,3',4,4',5-pentachlorobiphenyl]
Settings	concentration in liver [pg/g]	concentration in plasma [ng/mL]
[8]	6950	–
[9]	4090	–
[10]	4680	–
[11]	467	–
[12]	18300	–
[13]	–	0.0349

CCC(C)(C)OC [tertiary amyl methyl ether]
[14]
Settings	concentration in blood
0.2263 h, 500 ppm, female	5810 ng/mL
0.2525 h, 500 ppm, female	8410 ng/mL
0.2551 h, 100 ppm, female	881 ng/mL
0.2653 h, 100 ppm, female	1800 ng/mL
0.2703 h, 100 ppm, female	1450 ng/mL
0.2738 h, 100 ppm, female	1190 ng/mL
0.3942 h, 2500 ppm, female	32600 ng/mL
0.4236 h, 2500 ppm, female	40200 ng/mL
0.4245 h, 2500 ppm, female	37400 ng/mL
0.4292 h, 2500 ppm, female	22500 ng/mL
0.4366 h, 100 ppm, female	992 ng/mL
0.4373 h, 100 ppm, female	940 ng/mL
0.5868 h, 2500 ppm, female	27600 ng/mL
0.5905 h, 500 ppm, female	8410 ng/mL
0.5956 h, 500 ppm, female	5500 ng/mL
0.5965 h, 500 ppm, female	4950 ng/mL
0.597 h, 500 ppm, female	4700 ng/mL
0.5988 h, 500 ppm, female	3650 ng/mL
0.6194 h, 2500 ppm, female	25300 ng/mL
0.7791 h, 2500 ppm, female	23800 ng/mL
0.7807 h, 2500 ppm, female	19000 ng/mL
0.8093 h, 2500 ppm, female	29000 ng/mL
0.8101 h, 2500 ppm, female	26500 ng/mL
0.9675 h, 500 ppm, female	3650 ng/mL
0.968 h, 500 ppm, female	3340 ng/mL
0.9693 h, 500 ppm, female	2600 ng/mL
0.9878 h, 100 ppm, female	829 ng/mL
0.9914 h, 100 ppm, female	569 ng/mL
1.862 h, 500 ppm, female	1480 ng/mL
1.863 h, 500 ppm, female	866 ng/mL
1.864 h, 500 ppm, female	742 ng/mL
1.886 h, 100 ppm, female	368 ng/mL
1.887 h, 100 ppm, female	271 ng/mL
1.888 h, 100 ppm, female	212 ng/mL
1.897 h, 2500 ppm, female	13900 ng/mL and 12700 ng/mL
1.898 h, 2500 ppm, female	9100 ng/mL
1.899 h, 2500 ppm, female	7630 ng/mL
3.747 h, 2500 ppm, female	3650 ng/mL
3.767 h, 100 ppm, male	211 ng/mL
3.779 h, 2500 ppm, female	5330 ng/mL
3.78 h, 2500 ppm, female	1550 ng/mL
3.88 h, 100 ppm, female	96.2 ng/mL
9.851 h, 100 ppm, female	1.74 ng/mL
17.79 h, 2500 ppm, female	410 ng/mL
17.82 h, 100 ppm, male	13.6 ng/mL
17.9 h, 500 ppm, female	61.8 ng/mL
18.02 h, 100 ppm, female	12.5 ng/mL
137 s, 2500 ppm, female	51100 ng/mL
141 s, 2500 ppm, female	47500 ng/mL
144 s, 2500 ppm, female	45000 ng/mL
145 s, 2500 ppm, female	43700 ng/mL
193 s, 500 ppm, female	16800 ng/mL
242 s, 500 ppm, female	26500 ng/mL
270 s, 2500 ppm, female	35100 ng/mL

[14], female, during exposure
Settings	concentration in blood
-268 s, 500 ppm	19600 ng/mL
-6 h, 2500 ppm	10300 ng/mL and 9030 ng/mL
-5.999 h, 2500 ppm	7560 ng/mL
-5.938 h, 2500 ppm	16400 ng/mL
-5.909 h, 2500 ppm	25000 ng/mL
-5.908 h, 2500 ppm	21400 ng/mL
-5.903 h, 100 ppm	1250 ng/mL
-5.879 h, 100 ppm	1190 ng/mL
-5.878 h, 2500 ppm	28800 ng/mL
-5.859 h, 100 ppm	1400 ng/mL
-5.83 h, 100 ppm	982 ng/mL
-5.821 h, 500 ppm	2970 ng/mL
-5.804 h, 100 ppm	754 ng/mL
-5.79 h, 500 ppm	2600 ng/mL
-5.672 h, 500 ppm	5870 ng/mL
-5.548 h, 500 ppm	4760 ng/mL
-5.527 h, 2500 ppm	26500 ng/mL
-5.521 h, 500 ppm	7360 ng/mL
-5.501 h, 2500 ppm	44800 ng/mL
-5.5 h, 2500 ppm	41200 ng/mL
-5.498 h, 100 ppm	1760 ng/mL
-5.498 h, 2500 ppm	33800 ng/mL and 32600 ng/mL
-5.497 h, 100 ppm	1700 ng/mL
-5.494 h, 500 ppm	9520 ng/mL
-5.493 h, 2500 ppm	17700 ng/mL
-5.152 h, 2500 ppm	48700 ng/mL and 47300 ng/mL
-5.146 h, 100 ppm	2800 ng/mL
-5.136 h, 100 ppm	2020 ng/mL
-5.133 h, 100 ppm	1860 ng/mL
-5.124 h, 2500 ppm	59700 ng/mL and 58600 ng/mL
-5.123 h, 2500 ppm	55900 ng/mL
-4.918 h, 500 ppm	13900 ng/mL
-4.073 h, 100 ppm	2900 ng/mL
-4.069 h, 100 ppm	2650 ng/mL
-4.049 h, 100 ppm	2840 ng/mL
-4.042 h, 2500 ppm	61200 ng/mL
-4.041 h, 2500 ppm	59500 ng/mL
-4.039 h, 2500 ppm	53600 ng/mL
-4.016 h, 2500 ppm	80900 ng/mL
-4.014 h, 2500 ppm	73300 ng/mL
-4.012 h, 2500 ppm	68500 ng/mL
-3.876 h, 500 ppm	15000 ng/mL
-3.874 h, 500 ppm	13900 ng/mL
-3.848 h, 500 ppm	16400 ng/mL
-2.172 h, 2500 ppm	91800 ng/mL
-2.171 h, 2500 ppm	88100 ng/mL
-2.17 h, 2500 ppm	83200 ng/mL
-2.169 h, 2500 ppm	79400 ng/mL
-2.086 h, 100 ppm	3100 ng/mL
-2.066 h, 100 ppm	1650 ng/mL
-1.92 h, 500 ppm	21100 ng/mL
-1.893 h, 500 ppm	22900 ng/mL
-0.1379 h, 500 ppm	20800 ng/mL
-0.1362 h, 2500 ppm	97900 ng/mL
-0.1343 h, 2500 ppm	91900 ng/mL
-0.1296 h, 500 ppm	16100 ng/mL
-0.1295 h, 2500 ppm	76900 ng/mL
-0.1268 h, 2500 ppm	68300 ng/mL
-0.1264 h, 2500 ppm	67100 ng/mL
-0.1231 h, 500 ppm	12400 ng/mL
-0.12 h, 100 ppm	3220 ng/mL
-0.1177 h, 100 ppm	3050 ng/mL
-0.1027 h, 100 ppm	3620 ng/mL
